Laboratory results taken from the supplement of paper PMC3724861.
Some of the results follow.

The sequences below were run on T1, Caupolican (Caup) homeodomain DNA-binding domain (assay: PBM E-score (8-mer, recovered from the published 9-mer minima) (E-score (dimensionless, -0.5 to 0.5)); Drosophila protein; higher = stronger relative binding preference, active = 0.31 or more).
T1 sequence: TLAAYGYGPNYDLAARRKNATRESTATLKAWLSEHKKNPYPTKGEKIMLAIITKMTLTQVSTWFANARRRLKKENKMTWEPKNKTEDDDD
Method in brief: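 Caup's homeodomain DNA-binding domain (residues 214-303) was produced by in vitro transcription and translation and applied at 100 nM to custom-designed protein binding microarrays. Each value is an enrichment score giving relative binding preference for a short DNA word; higher means stronger. Published 9-mer scores were the minimum of their two constituent 8-mer scores, and the 8-mer values were recovered from those minima. A cutoff of 0.31 marks candidate binding sequences.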

PBM E-score, ≥ 0.279:
ATGTTGCA

PBM E-score, inactive:
GAGAGAGA -0.0674
CGTCATAC 0.0986
AATTCGGC -0.0352
GCCTTTAA -0.0796
ATATGTGG 0.182
CTGCGCGA -0.0149
AGACAACT 0.191
GCTTCGAA -0.00964
GTGTAAGA 0.224
ACCCCTTA -0.0966
GGAACGAA -0.0681
CTACCGTC -0.156
CTAGAGAG -0.125
GAGGTGTA 0.152
CAAGGGTG -0.0566
CTTCAGGC -0.205
CGCTAGAG -0.149
ATCATTCA 0.178
CGATTAGC -0.0349
AACGGATC 0.112
GCGGATTA 0.0244
GCTGCAGC -0.261
TAAGGTAA 0.081
ACTTTGCT 0.0012
CGGGTTAC -0.0194
CGAGTGAC -0.00498
GAGTAGCC -0.112
TCCTTTAA 0.008
CCCGCGTC -0.154
GTGTCGCA 0.176
AATGTGCC -0.0817
GGGAGACA 0.00931
CCGCGAGC -0.208
GCGTTACC -0.0921
ATCGTAGG 0.00115
CACCAGTC -0.0551
GCGACACA 0.148
CGTAGATA 0.181
CCGGGCAA -0.204
AGATTGCA 0.0484
ACTGTGGG -0.0135
ATATAATG 0.223
GGTAAACA 0.213
AAATCTGG -0.0647
AGCTGAAC -0.0556
AAGGGGGC -0.238
AGTGAAGC -0.0928
GTGATCAC 0.126
AATCGACC -0.00754
AGTTCCCC -0.213
TACTCGAA 0.0901
AAAGCATC 0.0658
AAGTAAGG 0.0246
AGGACTTA -0.0147
CCTGCATA -0.0836
CCCAGTAC 0.0222
GCCCCTCC -0.212
AATGGGTA 0.124
CGCGGATC -0.195
CGCACAGC -0.242
AACGGTAT 0.0117
AAGAGCGC -0.106
GGAACACA 0.26
ACCCCCGG -0.234
CGGGTAAG -0.0951
ACTATCCC -0.119
CGTTAAAA -0.0507
CATGGAGC -0.0084
GCCGTATA 0.0675
GCACCTCC -0.28
CTTGGAGC -0.14
AAAGCGGA -0.0838
CGGCCGTC -0.185
CATCCGAA 0.074
AGGCGGCG -0.157
CACTGCCC -0.0974
CCCCGCTA -0.215
GGTCGTTA 0.0219
TCACCAGA -0.0464
GGGTAGCA -0.177
CCTAACCA 0.0546
GCCCAATA -0.00456
ATTGTCAC 0.224
AGAGACCG -0.177
TACAATAA 0.245
TACCATAA 0.127
AGCGACGA -0.0369
GGGACGAC -0.115
AAAGGTCA -0.0426
GTGCCACA -0.0988
CCCGGTAG -0.0662
ATCTTACA 0.233
TTGGGAAA 0.0459
CTCATCCA 0.0394
CGTAAAGC -0.107
TAATATCA 0.177
GACGAGAA 0.0608
GGCGCACA -0.14
AGAAAAGC -0.0456
AGGACACT -0.00147
CCAATCGG -0.153
TACTAGGA 0.165
ACCGAGCC -0.0985
CGGCACTA -0.123
ACTATTCG 0.0513
CTGACATA 0.22
CTTTCGTC -0.0286
AAATCTTA 0.0578
CCGCATAA -0.0168
CCAAGAAG -0.0481
CGATTCGC -0.0138
ACGTAGAC 0.0303
GCCGACGA -0.104
ACTATAAC 0.205
CGAACTAC 0.121
AGAGGTCC -0.107
CTGAGAGC -0.147
AGATGCGC -0.0446
ACAGTAGC 0.0447
GATTGCAA 0.0474
ATGTGGCC -0.0518
AGTGTGGC -0.152
GGAACCCA -0.0548
CATTCCAG -0.0271
ATCTTGTC 0.308
CGCATGGA -0.0924
CATTATGG -0.0101
CCTTCGCG -0.168
CTAACCGA -0.0177
CTCTCTGA -0.0681
CATTGTTA 0.27
AGAACCAA -0.021
ACCCAATC -0.0831
CTGGGCGC -0.207
AGGATTGA 0.0816
CAATTGGG -0.0977
AGCAATCG 0.124
GACTGGCA -0.134
AACGCCAA -0.004
